Measured values from PubChem BioAssay AID504832 (National Center for Advancing Translational Sciences (NCATS), 2011).
Out of some 310,000 compounds screened, about 18,000 (5.8%) were called active. Inconclusive means that the source gave no clear call. Such entries were picked first, then a sample of the others. The call rests on the fitted dose curve; in most records, active means well fitted inhibition curve with a large enough effect; inconclusive means small, poorly fitted or top-dose-only effect, or another doubt; inactive means no such curve, though single readings can be large or run the other way. Potencies of inconclusive entries are left out as doubtful fits.

Assay: Primary qHTS for delayed death inhibitors of the malarial parasite plastid, 48 hour incubation
Details: P. falciparum luciferase growth in erythrocytes; series mostly up to 28.7 µM
In short: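 Erythrocytes infected with P. falciparum carrying an integrated firefly luciferase reporter (2% hematocrit, 0.1% parasitemia final) were exposed to compounds in RPMI 1640 with 0.5% Albumax at 37 C, 5% CO2. Growth inhibition was scored as reduced luminescence.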
Potency means the concentration at half of the fitted maximal effect; tags describe the fitted curve by direction and shape.

Structure (SMILES)	Potency
CSCC[C@H](NC(=O)c1cc([N+](=O)[O-])ccc1Cl)c1nc2ccccc2[nH]1	active: 11.7 µM
COc1ccc(CNC(=O)C(C)N2CCN(S(=O)(=O)c3ccccc3F)CC2)cc1 (stereo unspecified)	inconclusive [inhibitor, single point]
Cc1ccc(OCCn2ccnc2)c([N+](=O)[O-])c1	inconclusive [inhibitor, partial curve, poor fit]
COc1ccc(Cl)cc1S(=O)(=O)N1CCN(c2ccc(F)cc2)CC1	inactive
NC(=S)Nc1ccc(Oc2ccc(NC(N)=S)cc2)cc1	inactive
CC(C)(C)OC(=O)N[C@H](C(=O)OC(C)(C)C)c1ccc2c(c1)OCO2	active: 11.7 µM
CCOc1ccc2nc(NC(=O)Cn3[nH]c(=O)c4ccccc4c3=O)sc2c1	inconclusive [inhibitor, single point]
Cc1ccc2c(c1)nnn2C1CCN(S(=O)(=O)c2ccc(C(=O)N3C(C)CCCC3C)cc2)CC1 (stereo unspecified)	inconclusive [inhibitor, full curve]
O=C(c1cc(-c2cccs2)on1)N1CCN(C(c2ccccc2)c2ccccc2)CC1	active: 6.57 µM
Cc1cccc([C@@H]2[C@@H]3C(=O)N(Cc4ccccc4)C(=O)[C@@H]3[C@]3(Cc4ccccc4)C(=O)N(c4ccc(C(F)(F)F)cc4)C(=O)N23)c1	active: 8.28 µM
CC(=O)NC(Cc1ccccc1F)C(=O)NC1CCN(C(=O)NCc2ccccc2)CC1 (stereo unspecified)	inactive
CC1C[N+](=C2C=C(N3CCOCC3)CC(C)(C)C2)CC(C)O1 (stereo unspecified)	inconclusive [inhibitor, single point]
O=[N+]([O-])c1cc(C(F)(F)F)ccc1NCCc1ccncc1	inactive
CCC(=O)Nc1ccc2nc(C)n(Cc3ccccc3Cl)c(=O)c2c1	active: 13.1 µM
O=C(Nc1ccc(O)cc1)c1ccc(C(=O)c2ccccc2)o1	inconclusive [inhibitor, partial curve]
Cc1cccc(C(=O)NCCNC(=O)c2ccccn2)c1	inactive
CCOC(=O)C1(S(=O)(=O)c2ccc(Cl)cc2)CCN(Cc2ccc(C)cc2)CC1	inconclusive [inhibitor, partial curve, poor fit]
COc1ccc(Br)cc1CN1CCN(Cc2c[nH]c3ccccc23)CC1	inconclusive [inhibitor, single point]
Cc1ccc(Cl)cc1NC(=O)C1CCCN1S(=O)(=O)c1ccc(-c2ccc(=O)[nH]n2)s1 (stereo unspecified)	inconclusive [inhibitor, single point]
CC1CCCCN1C(=O)CCC(=O)Nc1nnc(C2CCCCC2)s1 (stereo unspecified)	inconclusive [inhibitor, single point]
Cc1cc(C[n+]2ccccc2)c2nsnc2c1	active: 2.08 µM
N#CC1=C(N)C(C#N)(C#N)[C@H](c2ccncc2)[C@H]2CC3(CC=C12)OCCO3	inactive
O=C1CCCN1c1ccc(S(=O)(=O)Nc2ccc3c(c2)OCCO3)cc1	inconclusive [inhibitor, single point]
O=C(CN1C(=O)NC2(CCCCC2)C1=O)Nc1cc(C(F)(F)F)ccc1N1CCCCC1	inconclusive [inhibitor, partial curve]

Structure (SMILES)	Potency
Cc1ccc(-c2cc(Cc3ccccc3)c(=O)[nH]n2)cc1	inactive
Cc1c(NC(=O)COC(=O)C2=COCCO2)cccc1[N+](=O)[O-]	inactive
CC12CCC(C(N)=O)(C1Br)C2(C)C (stereo unspecified)	inactive
O=C(COC(=O)c1ccccc1SCC(=O)N1CCCC1)Nc1ccccc1OC(F)F	inconclusive [inhibitor, single point]
Cc1ccc(-c2cc(C(F)F)n3ncc(C(=O)N4CCN(c5cccc(C)c5C)CC4)c3n2)cc1	inactive
Cc1ccc(S(=O)(=O)N(CC(=O)NCCC2=CCCCC2)Cc2ccccc2)cc1	inconclusive [inhibitor, partial curve, poor fit]
O=C(COC(=O)c1ccc(Cl)cc1)NC(=O)NC1CCCC1	inactive
Cc1ccc(C(=O)NNc2c3ccccc3nc3ccccc23)cc1	active: 13.1 µM
O=C(c1ccc2c(=O)n(Cc3ccccc3Cl)c(=S)[nH]c2c1)N1CCCC1	inconclusive [inhibitor, single point]
CC(C)(C)c1ccc(S(=O)(=O)N2CCC(CO)(CC3CCCCO3)CC2)cc1 (stereo unspecified)	active: 2.33 µM
Cc1cc(C)c(C)c(/C=C(/C#N)C(N)=S)c1C	inconclusive [inhibitor, partial curve, poor fit]
N/C(=N\c1nc2c(c(=O)[nH]1)CCCC2)Nc1ccc(Oc2ccccc2)cc1	inconclusive [inhibitor, single point]
O=C(CN1C(=O)S/C(=C\C=C\c2ccccc2)C1=O)N1CCCCC1	inactive
COc1cccc(CN(C)C(=S)Nc2ccc(C)c(C)c2)c1	inactive
NC(=O)CSc1nnc(C2CC2)n1Cc1ccccc1	inconclusive [inhibitor, full curve, poor fit]
O=C(NCCCN1CCOCC1)c1cc(Cl)ccc1Cl	inactive
O=C(CSc1nc2ccccc2c(=O)n1CCCN1CCOCC1)Nc1ccc2c(c1)OCO2	inconclusive [inhibitor, partial curve, poor fit]
COc1ccc(OCC(=O)Nc2ccc3c(c2)nc(CN2CCN(C(C)=O)CC2)n3C)cc1	inconclusive [inhibitor, partial curve, poor fit]
COCCOc1cc(NC(=O)c2cccc(OC)c2)c(Cl)cc1Cl	active: 11.7 µM
CC(C(=O)Nc1ccc2c(c1)OCCO2)N(C)CC(=O)Nc1ccccc1Br (stereo unspecified)	inconclusive [inhibitor, single point]
Cc1ccc(C(C(=O)NCC2CCCO2)N(C(=O)c2snc(C(N)=O)c2N)c2ccc3c(c2)OCCO3)cc1 (stereo unspecified)	active: 10.4 µM
CCc1nn2cc(C(=O)c3ccccc3O)cnc2c1-c1ccc(F)cc1	inconclusive [inhibitor, single point]
Cc1c(C(=O)OC(C)C)sc(NC(=O)c2cccnc2)c1C#N	inconclusive [inhibitor, partial curve]
c1ccc(C2(N3CCCC3)CCCCC2)cc1	active: 15.1 µM

Structure (SMILES)	Potency
CCN(Cc1ccccc1)c1ccc(/C=N/N=C(N)N)cc1	active: 1.47 µM
O=C(CNCc1ccccc1Cl)Nc1ccc(C(=O)N2CCCCC2)cc1	inactive
O=C(N/N=C\c1cccnc1)c1cc(-c2ccc(Cl)s2)[nH]n1	inconclusive [inhibitor, partial curve, poor fit]
Cc1cc(=O)oc2c(CN(C)Cc3ccccc3)c(O)ccc12	inconclusive [inhibitor, partial curve, poor fit]
Cc1cccc2sc(N(CCN(C)C)C(=O)/C=C/c3cccs3)nc12	inconclusive [inhibitor, single point]
COc1cccc(CNC(=O)Cn2ncn3cccc3c2=O)c1OC	inactive
S=c1[nH]nc(Cc2ccc(Br)cc2)n1/N=C/c1ccc(Cl)cc1	inconclusive [inhibitor, single point]
CC(C)Cn1c(-c2ccco2)csc1=Nc1cccnc1	active: 14.7 µM
CCC1CCCCN1Cc1nc2c(c(=O)n(C)c(=O)n2C)n1Cc1ccccc1 (stereo unspecified)	inconclusive [inhibitor, partial curve]
O=C1NC(=O)N(c2ccccc2)C(=O)/C1=C\C=C\c1ccccc1	inactive
CCn1c(CN2CCN(c3ccc(OC)cc3)CC2)nc2cc(S(=O)(=O)N(C)C)ccc21	inconclusive [inhibitor, single point]
CC(NC(=O)c1ccco1)C12CC3CC(CC(C3)C1)C2 (stereo unspecified)	inconclusive [inhibitor, partial curve, poor fit]
O=C(CCS(=O)(=O)Cc1ccccc1)NC1CCCCC1	inactive
Cc1cccc(C)c1NC(=O)CCCSc1nnc(-c2ccco2)o1	inconclusive [inhibitor, single point]
CCc1nc(N2CCCC(C)C2)c2oc3ccccc3c2n1 (stereo unspecified)	inconclusive [inhibitor, partial curve, poor fit]
COc1ccc(OCC(O)CNS(=O)(=O)c2ccc(NC(C)=O)cc2)cc1 (stereo unspecified)	inconclusive [inhibitor, full curve, poor fit]
Cc1ccc(S(=O)(=O)CCc2nnc(NC(=O)CCl)s2)cc1C	inconclusive [inhibitor, partial curve, poor fit]
CCCCC(=O)NNC(=S)NC(=O)c1ccc(C)cc1	inconclusive [inhibitor, single point]
CCOC(=O)N1CCN(C(=O)c2ccc3c(c2)N(Cc2ccc(C)cc2)CCS3)CC1	active: 13.1 µM
COc1ccc(NS(=O)(=O)c2ccc(C)c(C(=O)N(C)CCc3ccc(OC)c(OC)c3)c2)cc1	inconclusive [inhibitor, single point]
C=C(C)CSc1nc2sc3c(c2c(=O)n1-c1ccc(OC)cc1)CCN(C)C3	active: 1.85 µM
C#C[C@]1(O)CC[C@H]2[C@@H]3CCC4=CC(=O)CC[C@]4(C)[C@H]3CC[C@@]21C	inactive
Cc1ccc(-n2nc3c(=O)n(C(C)C(=O)NC4CC4)nc(C)c3c2C)cc1 (stereo unspecified)	inconclusive [inhibitor, single point]
